Here are results for one protein from publication PMC10182836 (Molecular cell, 2023).

The data set concerns the molecule itself. Put plainly: cryo-EM structure.

B1: Cbf1 (full-length Cbf1 used for cryo-EM, Cbf1([…])) (natural protein)
chain: not shown
Turning to B1, the binding result was “binds”.
